# Laboratory results taken from paper PMC5892938.
# The other results are listed elsewhere or left out. At the low end of the ranking the order means little.
# Target: GST-SBP-SLBP (stem-loop binding protein) (UniProt Q14493)
# Test: targeted RNA Bind-n-Seq;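 also: DESeq read counts versus GST-SBP nonspecific binding control pulldown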
# Details: RBNS binding buffer: 25 mM Tris pH 7.5, 150 mM KCl, 3 mM MgCl2, 0.1% Tween, 0.5 mg/mL BSA, 1 mM DTT; 27 nM protein, 750 pM RNA pool; temperature not stated; high values mean tight binding
row,Sequence,binding signal (log2 fold change)
1,GGUCACGUCUCAAUCAACUCAUUUCCCAGGGAAACCCCUGGUAAUCUCAACAGCUCGCAGUCAAG,-0.0568
2,GGUCACGUCUCAAUCAACUCAUUUUCAGGAGUUUUCUCCUGCUAACUCAACAGCUCGCAGUCAAG,0.0378
3,GGUCACGUCUCAAUCAACUCUUUCUCCAGGGAAAUCCCUGGCUAUCUCAACAGCUCGCAGUCAAG,0.375
4,GGUCACGUCUCAAUCAACUCAUCCCCCAGGGAAAGCCCUGGUAUAUUCAACAGCUCGCAGUCAAG,0.227
5,GGUCACGUCUCAAUCAACUCCACGGAGGGGGGGAAAACCCCUUUACCCUCAUUCUCAACAGCUCGCAGUCAAG,-0.463
6,GGUCACGUCUCAAUCAACUCAUUCCCAGGAGUUUGCUCCUGCUUACUCAACAGCUCGCAGUCAAG,0.113
7,GGUCACGUCUCAAUCAACUCUAUCCCAGGAGUUUUCUCCUGUAAAUUCAACAGCUCGCAGUCAAG,0.107
8,GGUCACGUCUCAAUCAACUCAUCUUCAGGAGUUUUCUCCUGUAAAUUCAACAGCUCGCAGUCAAG,0.107
9,GGUCACGUCUCAAUCAACUCAGUCUCAGGAGUUUGCUCCUGCUAAUUCAACAGCUCGCAGUCAAG,-0.248
10,GGUCACGUCUCAAUCAACUCAAUAGAGGGGGGGAAAACCCCUUUACCCUCCAUAUCAACAGCUCGCAGUCAAG,0.379
11,GGUCACGUCUCAAUCAACUCUACUCCCAGGGAAAGCCCUGGCUUACUCAACAGCUCGCAGUCAAG,0.0492
12,GGUCACGUCUCAAUCAACUCUUCCUCCAGGGAAACCCCUGGUUUUUUCAACAGCUCGCAGUCAAG,-0.214
13,GGUCACGUCUCAAUCAACUCAUCGGAGGGGGGGAAAACCCCUUUACCCUCAUAUUCAACAGCUCGCAGUCAAG,-0.28
14,GGUCACGUCUCAAUCAACUCUUCCCCAGGAGUUUUCUCCUGUAUUUUCAACAGCUCGCAGUCAAG,0.0371
15,GGUCACGUCUCAAUCAACUCUUUUUCCAGGGAAAUCCCUGGCUUUCUCAACAGCUCGCAGUCAAG,-0.122
16,GGUCACGUCUCAAUCAACUCCUUAGAGGGGGGGAAAACCCCUUUACCCUCACACUCAACAGCUCGCAGUCAAG,0.0368
17,GGUCACGUCUCAAUCAACUCUUCCUCCAGGGAAAUCCCUGGUUUUCUCAACAGCUCGCAGUCAAG,-0.205
18,GGUCACGUCUCAAUCAACUCUAUGGCCAGGGAAAUCCCUGGGAAAUUCAACAGCUCGCAGUCAAG,-0.219
19,GGUCACGUCUCAAUCAACUCCUUCGAGGGGGGGAAAACCCCUUUACCCUCUACUUCAACAGCUCGCAGUCAAG,-0.0914
20,GGUCACGUCUCAAUCAACUCUUACGAGGGGGGGAAAACCCCUUUACCCUCUAUAUCAACAGCUCGCAGUCAAG,-0.134
21,GGUCACGUCUCAAUCAACUCUACUUCAGGAGUUUUCUCCUGCAAACUCAACAGCUCGCAGUCAAG,-0.0143
22,GGUCACGUCUCAAUCAACUCUUUCUCAGGAGUUUCCUCCUGUAUAUUCAACAGCUCGCAGUCAAG,0.148
23,GGUCACGUCUCAAUCAACUCUUUCUCAGGAGUUUUCUCCUGCAUUCUCAACAGCUCGCAGUCAAG,0.0931
24,GGUCACGUCUCAAUCAACUCAAUCCCAGGAGUUUUCUCCUGUUUUUUCAACAGCUCGCAGUCAAG,-0.3

row,Sequence,binding signal (log2 fold change)
1,GGUCACGUCUCAAUCAACUCUAUAGAGGGGGGGAAAACCCCUUUACCCUCCACGUCAACAGCUCGCAGUCAAG,0.00714
2,GGUCACGUCUCAAUCAACUCAUUUCCAGGAGUUUACUCCUGUAUUCUCAACAGCUCGCAGUCAAG,-0.0595
3,GGUCACGUCUCAAUCAACUCUACUUCCAGGGAAAACCCUGGUAAAUUCAACAGCUCGCAGUCAAG,-0.174
4,GGUCACGUCUCAAUCAACUCAACGCCAGGAGUUUUCUCCUGUUAUCUCAACAGCUCGCAGUCAAG,0.014
5,GGUCACGUCUCAAUCAACUCUCACGAGGGGGGGAAAACCCCUUUGCCCUCAUUCUCAACAGCUCGCAGUCAAG,-0.419
6,GGUCACGUCUCAAUCAACUCAUCCUCAGGAGUUUUCUCCUGCAAUCUCAACAGCUCGCAGUCAAG,-0.0897
7,GGUCACGUCUCAAUCAACUCUAAGGAGGGGGGGAAAACCCCUUUACCCUCAAUAUCAACAGCUCGCAGUCAAG,0.0577
8,GGUCACGUCUCAAUCAACUCUUCCCCAGGAGUUUUCUCCUGCUUUUUCAACAGCUCGCAGUCAAG,0.0526
9,GGUCACGUCUCAAUCAACUCAUCGCCAGGAGUUUACUCCUGCUUUCUCAACAGCUCGCAGUCAAG,0.0446
10,GGUCACGUCUCAAUCAACUCUUUUUCAGGAGUUUCCUCCUGUAUACUCAACAGCUCGCAGUCAAG,0.118
11,GGUCACGUCUCAAUCAACUCUUCGCCCAGGGAAAACCCUGGUUAAUUCAACAGCUCGCAGUCAAG,0.0886
12,GGUCACGUCUCAAUCAACUCACACGAGGGGGGGAAAACCCCUUUACCCUCAAUAUCAACAGCUCGCAGUCAAG,0.197
13,GGUCACGUCUCAAUCAACUCAUUUCCCAGGGAAAACCCUGGCUAACUCAACAGCUCGCAGUCAAG,-0.0182
14,GGUCACGUCUCAAUCAACUCCUCAGAGGGGGGGAAAACCCCUUUACCCUCCACAUCAACAGCUCGCAGUCAAG,-0.302
15,GGUCACGUCUCAAUCAACUCCAUCGAGGGGGGGAAAACCCCUUUACCCUCAACAUCAACAGCUCGCAGUCAAG,-0.372
16,GGUCACGUCUCAAUCAACUCUCACGAGGGGGGGAAAACCCCUUUACCCUCUCCAUCAACAGCUCGCAGUCAAG,-0.328
17,GGUCACGUCUCAAUCAACUCAACGGAGGGGGGGAAAACCCCUUUACCCUCACUAUCAACAGCUCGCAGUCAAG,0.0868
18,GGUCACGUCUCAAUCAACUCAUCGCCAGGAGUUUCCUCCUGUUUAUUCAACAGCUCGCAGUCAAG,-0.344
19,GGUCACGUCUCAAUCAACUCAUCUUCAGGAGUUUUCUCCUGUAUUCUCAACAGCUCGCAGUCAAG,0.115
20,GGUCACGUCUCAAUCAACUCUUCGUCCAGGGAAAACCCUGGUAAUUUCAACAGCUCGCAGUCAAG,-0.0606
21,GGUCACGUCUCAAUCAACUCACUAGAGGGGGGGAAAACCCCUUUACCCUCCUAUUCAACAGCUCGCAGUCAAG,-0.0678
22,GGUCACGUCUCAAUCAACUCUAUUUCCAGGGAAAUCCCUGGUAUACUCAACAGCUCGCAGUCAAG,-0.0561
23,GGUCACGUCUCAAUCAACUCUAUCUCCAGGGAAACCCCUGGCAAAUUCAACAGCUCGCAGUCAAG,-0.136
